{"source": "PubChem BioAssay AID504332", "about": "(National Center for Advancing Translational Sciences (NCATS), 2011)", "note": "“And” between values parts separate entries of the source, which are not always exact repeats. Equal entries are not always repeated. Hit rate of the full screen: of about 350,000 compounds, about 31,000 (8.9%) were called active. Inconclusive results, whose numbers are uncertain, are shown with a selection of clear calls. The call rests on the fitted dose curve; in most records, active means well fitted inhibition curve with a large enough effect; inconclusive means small, poorly fitted or top-dose-only effect; inactive means no such curve, though single readings can be large or run the other way. Potencies beside an inconclusive call are fits to weak or partial responses and may not hold up. On the % scale 0 is the no-effect control and ±100 the full control effect; potency means the concentration at half of the fitted maximal effect; tags describe the fitted curve by direction and shape."}
{"target": "Histone-lysine N-methyltransferase EHMT2 (Homo sapiens) (UniProt Q96KQ7)", "sequence (Q96KQ7 whole entry, looked up)": "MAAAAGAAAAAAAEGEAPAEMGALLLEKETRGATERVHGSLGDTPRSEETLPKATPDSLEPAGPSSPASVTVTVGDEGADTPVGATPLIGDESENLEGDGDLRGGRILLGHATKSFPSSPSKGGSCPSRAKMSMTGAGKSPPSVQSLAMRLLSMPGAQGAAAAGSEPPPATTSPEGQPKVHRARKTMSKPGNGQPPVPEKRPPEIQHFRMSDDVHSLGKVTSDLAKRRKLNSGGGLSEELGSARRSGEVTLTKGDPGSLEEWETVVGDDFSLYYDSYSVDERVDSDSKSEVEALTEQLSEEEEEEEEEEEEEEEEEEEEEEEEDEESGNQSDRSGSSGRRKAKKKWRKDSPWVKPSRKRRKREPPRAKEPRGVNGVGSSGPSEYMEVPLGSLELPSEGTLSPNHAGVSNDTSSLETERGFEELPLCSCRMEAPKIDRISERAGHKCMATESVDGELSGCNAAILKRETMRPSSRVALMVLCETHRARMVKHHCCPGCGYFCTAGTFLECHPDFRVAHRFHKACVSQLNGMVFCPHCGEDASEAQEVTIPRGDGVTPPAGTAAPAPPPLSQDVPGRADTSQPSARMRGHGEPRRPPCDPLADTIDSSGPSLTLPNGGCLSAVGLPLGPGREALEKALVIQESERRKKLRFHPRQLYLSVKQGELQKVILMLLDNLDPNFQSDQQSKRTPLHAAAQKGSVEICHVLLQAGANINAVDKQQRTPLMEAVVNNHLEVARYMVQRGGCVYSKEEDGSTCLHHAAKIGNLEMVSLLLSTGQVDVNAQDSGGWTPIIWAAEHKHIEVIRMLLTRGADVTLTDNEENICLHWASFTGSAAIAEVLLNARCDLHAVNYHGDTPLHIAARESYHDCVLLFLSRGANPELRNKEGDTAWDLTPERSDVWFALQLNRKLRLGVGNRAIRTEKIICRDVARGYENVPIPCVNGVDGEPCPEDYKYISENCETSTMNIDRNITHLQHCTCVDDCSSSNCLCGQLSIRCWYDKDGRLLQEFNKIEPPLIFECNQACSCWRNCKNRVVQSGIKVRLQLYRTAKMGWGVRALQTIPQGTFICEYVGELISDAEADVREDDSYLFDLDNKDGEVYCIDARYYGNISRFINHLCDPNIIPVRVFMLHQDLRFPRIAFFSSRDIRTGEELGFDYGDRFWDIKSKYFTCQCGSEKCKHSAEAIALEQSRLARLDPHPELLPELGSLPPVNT", "experiment": "qHTS Assay for Inhibitors of Histone Lysine Methyltransferase G9a; further: nearly all actives have a fitted effect of over 75% in size", "conditions": "G9a H3K9 monomethylation, AlphaScreen, 2 h; activity, negative = inhibition: at 59 µM (top of the series) unless noted", "how_it_was_run": "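Step 1: enzyme (final 20 nM) with compound, 15 min RT. Step 2: substrate peptide 500 nM and SAM 20 uM, 2 h RT. Step 3: anti-H3K9me1 antibody and AlphaScreen beads, 10 min, then plate read.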"}
{"smiles": "COc1ccc(C(=O)Oc2c(CN3CCOCC3)cc(Cl)c3cccnc23)cc1", "Potency": "inconclusive: 3.16 µM [inhibitor, single point]"}
{"smiles": "O=S(=O)(NCCOCCNS(=O)(=O)c1ccccc1)c1ccccc1", "Potency": "inconclusive: 100 µM [inhibitor, single point]"}
{"smiles": "CCc1nc2nc(C)c(NS(=O)(=O)c3cccs3)c(=O)n2[nH]1", "Potency": "inconclusive: 89.1 µM [inhibitor, single point]"}
{"smiles": "Cc1c(Cc2ccccc2)c(=O)oc2cc(O)ccc12", "activity, negative = inhibition": "inactive: 7.71% [at 102 µM]"}
{"smiles": "CSc1nnc(NC(=O)c2nc(S(=O)(=O)Cc3ccccc3F)ncc2Cl)s1", "Potency": "active: 28.2 µM"}
{"smiles": "N#C/C(=C\\c1ccc(OCC(N)=O)cc1)S(=O)(=O)c1ccccc1", "Potency": "inconclusive: 89.1 µM [inhibitor, partial curve, poor fit]"}
{"smiles": "Cc1sc2ncnc(Nc3ccccc3)c2c1C", "activity, negative = inhibition": "inactive: 15.1% [at 12.7 µM]"}
{"smiles": "CC(=O)NNc1nc(-c2ccc(C)cc2)cs1", "Potency": "active: 31.6 µM"}
{"smiles": "CN(C)CCCSc1nc2ccccc2s1", "Potency": "active: 14.1 µM"}
{"smiles": "COCCCNC(=O)CS(=O)Cc1nc(-c2cccc(OC)c2)oc1C", "note": "(stereo not drawn)", "activity, negative = inhibition": "inconclusive: -97% [inhibitor] [at 102 µM]"}
{"smiles": "CCN1CCN(CCn2c(=S)[nH]c3ccccc3c2=O)CC1", "activity, negative = inhibition": "inconclusive: -85.4% [inhibitor]"}
{"smiles": "COc1ccc(NC(=O)c2c(-c3ccc(C)cc3)nnc3ccccc23)cc1Cl", "activity, negative = inhibition": "inactive: 7.48%"}
{"smiles": "N#C/C(C(=O)Nc1ccc(Cl)cc1)=C(/S)Nc1ccccc1", "Potency": "active: 1.58 µM"}
{"smiles": "Cc1ccc(S(=O)(=O)/N=C(/NC(=S)Nc2ccccc2)c2ccccc2)cc1", "Potency": "inconclusive: 10 µM [inhibitor, partial curve, poor fit]"}
{"smiles": "CCOC(=O)N1CCN(c2cc(N3CCN(CC)CC3)c(F)cc2[N+](=O)[O-])CC1C", "note": "(stereo not drawn)", "Potency": "inconclusive: 50.1 µM [inhibitor, partial curve, poor fit]"}
{"smiles": "CC1CCN(C(=O)Cn2c(=O)n(Cc3ccco3)c(=O)c3sccc32)CC1", "activity, negative = inhibition": "inactive: -0.427% [at 102 µM]"}
{"smiles": "O=C(CNC(=O)c1ccccc1F)OCc1cc(=O)n2ccsc2n1", "activity, negative = inhibition": "inactive: 7.7%"}
{"smiles": "Cc1cccc2sc(NC(=O)CCn3cccc3)nc12", "Potency": "active: 50.1 µM"}
{"smiles": "Cc1ccc(NC(=O)[C@@H]2CCCN2C(=O)c2cccs2)cc1S(=O)(=O)N1CCCCC1", "Potency": "inconclusive: 8.91 µM [inhibitor, partial curve, poor fit]"}
{"smiles": "Cc1ccc(C)c2[nH]c(=O)c(CN(Cc3nnnn3C3CCCCC3)CC3CCCO3)cc12", "note": "(stereo not drawn)", "Potency": "inconclusive: 39.8 µM [inhibitor, single point]"}
{"smiles": "CN(C)S(=O)(=O)c1ccc(Cl)c(NC(=O)CN2C(=O)NC(C)(C3CC3)C2=O)c1", "note": "(stereo not drawn)", "activity, negative = inhibition": "inactive: 20.2% [at 102 µM]"}
{"smiles": "O=S(=O)(c1ccccc1)c1nc(-c2ccc(Cl)cc2Cl)oc1N1CCCCC1", "Potency": "inconclusive: 22.4 µM [inhibitor, single point]"}
{"smiles": "COc1cc(/C=N/n2c(-c3n[nH]c4c3CCC4)n[nH]c2=S)ccc1O", "Potency": "inconclusive: 2 µM [inhibitor, partial curve, poor fit]"}
{"smiles": "Oc1[nH]c2ccccc2c1N=NC(=S)NCCc1ccccc1", "Potency": "inconclusive: 20 µM [inhibitor, single point]"}
{"smiles": "O=S(=O)(NN=C1CCCCCCC1)c1ccc(Br)cc1", "Potency": "inconclusive: 39.8 µM [inhibitor, single point]"}
{"smiles": "Cc1ccc(-c2nc(N/N=C/c3ccncc3)c3ccccc3n2)cc1", "Potency": "inconclusive: 50.1 µM [inhibitor, partial curve, poor fit]"}
{"smiles": "O=C(c1ccccc1)N1CCN(C(=O)c2nn3c(C(F)(F)F)cc(-c4ccco4)nc3c2Br)CC1", "Potency": "inconclusive: 79.4 µM [inhibitor, single point]"}
{"smiles": "COC(=O)c1ccc(C(=O)N2CCCC(Nc3ccc(C(C)C)cc3)C2)cc1", "note": "(stereo not drawn)", "Potency": "active: 79.4 µM"}
{"smiles": "CCCC(=O)Nc1ccc2oc(-c3cncc(Br)c3)nc2c1", "Potency": "inconclusive: 2 µM [inhibitor, full curve]"}
{"smiles": "COC(=O)c1ccc(NC(=O)CSc2nnc(CNc3ccc(OC)cc3)n2C)cc1", "activity, negative = inhibition": "inconclusive: -101% [inhibitor]"}
{"smiles": "Cc1ccc(-c2cnc(SCCNC(=O)c3ccco3)[nH]2)cc1", "Potency": "active: 44.7 µM"}
{"smiles": "N#Cc1ccsc1NC(=O)CN1CCN(c2ccc(O)cc2)CC1", "Potency": "active: 17.8 µM"}
{"smiles": "CCCCN(CCCNc1ncnc2nc[nH]c12)c1ccccc1", "Potency": "active: 44.7 µM"}
{"smiles": "CCn1c(COc2cccc(OC)c2)nnc1SCC(=O)N1CCOCC1", "activity, negative = inhibition": "inactive: 8.24% [at 102 µM]"}
{"smiles": "Cc1cc(Cl)ccc1NC(=O)CN1C(=O)C(=O)N(C2CCCC2)C1=O", "activity, negative = inhibition": "inactive: 15.2% [at 12.7 µM]"}
{"smiles": "COC(=O)C1=C(N)Oc2cc(N(C)C)ccc2C1c1ccccc1OC", "note": "(stereo not drawn)", "Potency": "active: 31.6 µM"}
{"smiles": "S=c1[nH]cc(-c2ccccc2)[nH]1", "activity, negative = inhibition": "inactive: -130%"}
{"smiles": "CN1CCN(CCC(=O)N/N=C/c2cc3c(cc2[N+](=O)[O-])OCO3)CC1", "Potency": "inconclusive: 89.1 µM [inhibitor, single point]"}
{"smiles": "COC(=O)c1cc2c(ccn2-c2ccc(F)cc2)n1Cc1ccc(OC)cc1", "activity, negative = inhibition": "inactive: -45.2%"}
{"smiles": "COc1ccc(NC(=O)C(C)N2CCN(C)CC2)cc1", "note": "(stereo not drawn)", "Potency": "inconclusive: 50.1 µM [inhibitor, partial curve, poor fit]"}
{"smiles": "O=C(/C(=N\\Nc1ccc([N+](=O)[O-])cc1)Sc1nnnn1-c1ccccc1)c1ccccc1", "Potency": "inconclusive: 11.2 µM [inhibitor, partial curve, poor fit]"}
{"smiles": "Cc1oc(-c2cccs2)nc1CN1CC[C@@](O)(c2ccccc2)[C@H]2CCCC[C@@H]21", "Potency": "inconclusive: 25.1 µM [inhibitor, partial curve, poor fit]"}
{"smiles": "CC(C)C(=O)Nc1ccc2nn(-c3ccc(F)cc3)nc2c1", "Potency": "inconclusive: 79.4 µM [inhibitor, single point]"}
{"smiles": "O=C1C(=O)N(Cc2cccnc2)C(c2cccc(O)c2)/C1=C(\\O)c1ccc2c(c1)OCCO2", "note": "(stereo not drawn)", "Potency": "active: 35.5 µM"}
{"smiles": "N#CC1=C(N)N(c2ccccc2C#N)C2=C(C(=O)CCC2)C1c1ccsc1", "note": "(stereo not drawn)", "Potency": "inconclusive: 28.2 µM [inhibitor, partial curve, poor fit]"}
{"smiles": "Cc1cccc(N2CCN(C(=O)Cc3c(C(=O)O)[nH]c4ccc(Cl)cc34)CC2)c1C", "Potency": "inconclusive: 79.4 µM [inhibitor, single point]"}
{"smiles": "CN(C)Cc1c(O)ccc2ccccc12", "Potency": "active: 7.94 µM"}
{"smiles": "COc1ccc(C(=O)COC(=O)c2ccn(C)n2)cc1", "Potency": "inconclusive: 89.1 µM [inhibitor, single point]"}
{"smiles": "Cc1cc(F)ccc1NCc1ccccc1[N+](=O)[O-]", "Potency": "active: 28.2 µM"}
{"smiles": "COc1ccc(NS(=O)(=O)c2ccc(C)c(C(=O)O)c2)cc1", "Potency": "inconclusive: 79.4 µM [inhibitor, single point]"}
{"smiles": "Cn1nc(C(F)(F)F)c(-c2ccc(Br)cc2)c1NC(=O)c1nccnc1C(=O)O", "Potency": "inconclusive: 35.5 µM [inhibitor, partial curve]"}
{"smiles": "Cc1nccc(-c2cccc(N/N=C(\\C#N)C(=O)c3ccccc3)c2)n1", "Potency": "inconclusive: 50.1 µM [inhibitor, partial curve]"}
{"smiles": "COc1cccc(C2CC(c3c(Cl)cccc3Cl)n3nc(N)nc3N2)c1", "note": "(stereo not drawn)", "Potency": "inconclusive: 35.5 µM [inhibitor, single point]"}
{"smiles": "CCN(CC)CCCNC(=O)CSc1c2c(nc3cc(Cl)ccc13)CCCC2", "Potency": "inconclusive: 31.6 µM [inhibitor, partial curve, poor fit] and inconclusive: 25.1 µM [inhibitor, partial curve, poor fit]"}
{"smiles": "Cc1cc(C)nc(NC(=O)CSc2nn(-c3ccccc3)c(=S)s2)n1", "Potency": "inconclusive: 35.5 µM [inhibitor, single point]"}
{"smiles": "COc1ccc(CCN2CCCC(CN(C)C(=O)c3ccoc3C)C2)cc1", "note": "(stereo not drawn)", "activity, negative = inhibition": "inactive: -2.37% [at 102 µM]"}
{"smiles": "Cc1cc(C)c(S(C)(=O)=O)c(Oc2cccc(Cl)c2)n1", "Potency": "inconclusive: 7.08 µM [inhibitor, single point]"}
{"smiles": "Cc1c(NS(=O)(=O)c2ccc3c(c2)NC(=O)CC(=O)N3)cccc1[N+](=O)[O-]", "activity, negative = inhibition": "inactive: 55.5% [at 102 µM]"}
{"smiles": "Cc1cc(C)nc(/N=C(\\N)Nc2ccc(CC(=O)OC(C)C)cc2)n1", "Potency": "inconclusive: 89.1 µM [inhibitor, single point]"}
{"smiles": "CCOc1ccc(S(=O)(=O)N(C)CC(=O)NC2CC2)cc1", "activity, negative = inhibition": "inactive: 18.8% [at 102 µM]"}
{"smiles": "CCn1c(=O)c2c(O)cc(=O)oc2c2ccccc21", "activity, negative = inhibition": "inactive: -6.76% [at 102 µM]"}
{"smiles": "O=Cc1cn(CC(=O)N2CCCc3ccccc32)c2ccccc12", "activity, negative = inhibition": "inactive: 1.96%"}
{"smiles": "Cc1cc(C)n2nc(C(=O)OCC(=O)c3cc(C)n(C)c3C)nc2n1", "Potency": "active: 44.7 µM"}
{"smiles": "O=C1CCN(Cc2ccccc2)CCN1CCO", "activity, negative = inhibition": "inconclusive: -59.5% [inhibitor]"}
{"smiles": "O=C(CSc1nnc(NC(=O)CN2CCOCC2)s1)Nc1ccccc1", "activity, negative = inhibition": "inconclusive: -97.9% [inhibitor]"}
{"smiles": "Cc1c(C(=O)Nc2cccc(C(F)(F)F)c2)sc2nc3n(c(=O)c12)CCCC3", "Potency": "active: 3.55 µM"}
{"smiles": "COc1cccc(C(=O)Nc2cc(=O)n(C)c(=O)n2C)c1OC", "activity, negative = inhibition": "inactive: 5.88% [at 102 µM]"}
{"smiles": "COc1ccc(C(=O)NNC(=O)c2cnccn2)cc1[N+](=O)[O-]", "Potency": "inconclusive: 0.891 µM [inhibitor, full curve, poor fit]"}
{"smiles": "CC(OC(=O)c1cccc(-n2cnnn2)c1)C(=O)Nc1ccccc1F", "note": "(stereo not drawn)", "Potency": "active: 50.1 µM"}
{"smiles": "O=C(CSc1ncc(-c2ccccc2)n1-c1ccccc1)NCc1ccco1", "Potency": "active: 12.6 µM"}
{"smiles": "Cc1nc2ccccc2c(=O)n1-c1ccc(F)c(NS(=O)(=O)c2ccccc2F)c1", "activity, negative = inhibition": "inactive: -41.6% [at 102 µM]"}
{"smiles": "COc1ccc(C(=O)N=c2nc3ccccn3s2)cc1", "Potency": "inconclusive: 100 µM [inhibitor, single point]"}
{"smiles": "C[C@H](Nc1ccc(C(F)(F)F)cc1[N+](=O)[O-])C(=O)O", "Potency": "active: 56.2 µM"}
